Data published in the RNAGym collection of RNA variant scans (doi:10.7554/elife.90254).
Read counts are not given, so values of variants with three or more changes are uncertain.

B1: LINE1-mini (parent)
chain: GGCAGAGCUCAACACAGCGUGGCAAAGUGGCUGUGGCUAGACUGCC

Variants of: B1
Experiment: self-cleavage, relative activity (ratio to wild type); higher = more cleavage; in vitro, sequencing; the parent is a self-cleaving ribozyme

Row | Variant | self-cleavage
1 | GGCAUAGCUCAACACAGUGUGGCAAUGUCGCUAUGGCUAGACUGCC [G5U C18U A26U G29C G33A] | 0.03
2 | GGCAUAGCUAAACACAGCGUGGCAAAUUGGCUGUGGCUAGCCUGCC [G5U C10A G27U A41C] | 0.03
3 | GGCAUAGCUCAACACAACUUGGCAAAGUGGGUGUGGCUAGACUGCC [G5U G17A G19U C31G] | 0.02
4 | GGCAUAGCUCAACACAGCGUGGCAAAGUGGCUGUGGUUAGAAUGGC [G5U C37U C42A C45G] | 0.01
5 | GGCAUAUCUCAUCACAGCAUGGCAAUAUGGCUGUGGCUAGACUGCG [G5U G7U A12U G19A A26U G27A C46G] | 0.19
6 | GGCAUAGCUCAACACAGCGUGGUAAAGUAGUUGUAGCUAGACUGCC [G5U C23U G29A C31U G35A] | 0.04
7 | GGCAUAGCUCAACACAGCGUCGCAAAGUGGCUGUGGCUAGACUGCA [G5U G21C C46A] | 0.03
8 | GGCAUAGCUCAAUACAGCGUGGCAAAGUCGCUGUGGCUAGACUGCC [G5U C13U G29C] | 0.02
9 | GGCAUAGCUCAAUACAGCGUGGCAAAGUGACUGCGGCUAGACUGCC [G5U C13U G30A U34C] | 0.06
10 | GGCAUAGCUCAACACAUCGUGGCAAAGUGGCGGUGGCUAGACUGCC [G5U G17U U32G] | 0.01
11 | GGCAUAGCUCAACAGAGCGUGGCAAACUGGCUGUGGGUAGACUGCC [G5U C15G G27C C37G] | 0.01
12 | GGCAUAGCUAAACACGGCGUGGCAAAGUGGCGGUGGUUAGACUGCC [G5U C10A A16G U32G C37U] | 0
13 | GGCAUAGCUCAACACAGAGUGUCAAUGUGGCUGUGGCUAGACUGCC [G5U C18A G22U A26U] | 0.05
14 | GGCAUAGCUCAACACAGGGUGUCAAAGUGGCUGUGGCUAGACUGCC [G5U C18G G22U] | 0.03
15 | GGCAUAGCUUAACACAUAGUGACAAAGUGGCUGUGGCUAGACUGCC [G5U C10U G17U C18A G22A] | 0.04
16 | GGCAUAUCUAAACAUAGCGUGGCAAAGUGGCAGUGGGUAGACUGCC [G5U G7U C10A C15U U32A C37G] | 0.02
17 | GGCAUAGCUCAACAGCGAGUGGCAAGGUGUCUGUGGGUAGACUGCC [G5U C15G A16C C18A A26G G30U C37G] | 0.01
18 | GGCAUAGCUCAACACAGCAUGACAAAGUGGCUGUGGCUAGGCGGCC [G5U G19A G22A A41G U43G] | 0
19 | GGCAUAGCUCAACACAGUCUGGCAAAGUUGCUGUGGCUAGACUGCC [G5U C18U G19C G29U] | 0.16

Row | Variant | self-cleavage
20 | GGCAUAGCUCAACAUAGCGUGCCAAAGUGGCUGUGGUUAGACUGCC [G5U C15U G22C C37U] | 0
21 | GGCAUAGCUCAACACAGCGUGGCAAAGUGGGUGUGGCUAGACUACC [G5U C31G G44A] | 0.03
22 | GGCAUAGCUCAACACAUCGUGGCAAAGUGGCUGUGGCUAGAUUGCC [G5U G17U C42U] | 0.02
23 | GGCAUAGCUCAACAAUGCGUGGCAAAGUGGCUGUGGAUAGACUGCC [G5U C15A A16U C37A] | 0.11
24 | GGCAUAGCUCAAUACAGCGUGGCAAAGUGACUGUGGAUAGACUCCC [G5U C13U G30A C37A G44C] | 0.12
25 | GGCAUAGCUAAACACAGCGUGGCAAGGUAGCUGUGGCUAGACUGCC [G5U C10A A26G G29A] | 0.01
26 | GGCAUAGCUAAACACAACGUGGCAAAGUGGCUGUGGCUAGACUGCC [G5U C10A G17A] | 0.02
27 | GGCAUAGCUCAACACAGCGUGGAAAAGCGGCUGUGGCUAGACUGCC [G5U C23A U28C] | 0.04
28 | GGCAUAAAUAAACACAGCGUGGCAAAGUGGCUGUGUCUAGACUGCC [G5U G7A C8A C10A G36U] | 0.03
29 | GGCAUAGCUCAACAUAGCGUGGCAAAGUGGCUAUGGCUAGACUGCC [G5U C15U G33A] | 0.04
30 | GGCAUAGCUCAACAUAGCGUGGCAAAGUGGCUCUGGCUAGACUGCC [G5U C15U G33C] | 0.07
31 | GGCAUAGCUAAACACAGAGAGGCAAAGCGGCUGUGGCUAGAAUGCC [G5U C10A C18A U20A U28C C42A] | 0.01
32 | GGCAUAACUCAACACAGCGUUGCAAAGUGGCUGUGGCUAGACUGCC [G5U G7A G21U] | 0.29
33 | GGCAUAUCUCGACACAGCGUGGCAAAGUGGCUGUGGCUAGACUGGC [G5U G7U A11G C45G] | 0.03
34 | GGCAUAGCUAAACACAGCGUGGCAAAGUGGCUGUGGCUAGACUACU [G5U C10A G44A C46U] | 0.05
35 | GGCAUAGCUGAACACAGCGUGGCCAAGUGGCUGUGGAUAGACUGCC [G5U C10G A24C C37A] | 0
36 | GGCAUAGCUCAACACAGUGUGGGUAAGUGGCUGUGGCUAAACUCCC [G5U C18U C23G A24U G40A G44C] | 0.04
37 | GGCAUAGCUCAACACAACUUGGCAAAGUGGCUGUGGCUAGACUGCC [G5U G17A G19U] | 0.79
38 | GGCAUAGCUCAACACAGCUUGGCAAAGUGGAUUUGGCUAGACUGCC [G5U G19U C31A G33U] | 0.16

Row | Variant | self-cleavage
39 | GGCAUAGCUCAACAAAGCGCGGCAAAGUGGCUGUGGCUAGACUCCC [G5U C15A U20C G44C] | 0.02
40 | GGCAUAGUUCAACACAGCGUGCCAAAGUCGCUGUGGCUAGACUGCC [G5U C8U G22C G29C] | 0.03
41 | GGCAUAGCUCAACACAGCGUGGAAAAGGGGCUGUGGCUAGUCUGCC [G5U C23A U28G A41U] | 0
42 | GGCAUAGCUCAACACAGAGUGGCAAAGUGGCGGUGGCUAGACUGCC [G5U C18A U32G] | 0.03
43 | GGCAUAGCUCAACAACGCGUGGCAAAGUGGCUGUGGCUAGUCUGCG [G5U C15A A16C A41U C46G] | 0.04
44 | GGCAUAGCUAAACACAGCGUGGCAAAGGGGCUGUGGCUAGACUGCU [G5U C10A U28G C46U] | 0.01
45 | GGCAUAUCUCAACACAGCGUAGCAAAGUAUCUGUGGCUAGACUGCC [G5U G7U G21A G29A G30U] | 0.98
46 | GGCAUAGCUCAACACAGUGGGGCAAAGUUGCUGUGGCUAGACUGCC [G5U C18U U20G G29U] | 0.02
47 | GGCAUAGCUCAACACAUCGUGGGAAAGUGGCUGUGGCUAGACUGCC [G5U G17U C23G] | 0.04
48 | GGCAUAGCUCAACACAGUGUGGCGAAGUGACUCUGGCUAGACUGCG [G5U C18U A24G G30A G33C C46G] | 0
49 | GGCAUAGCUCAACACAUUGUGGCAAAGUGGCUUUGGCUAGACUGCC [G5U G17U C18U G33U] | 0.03
50 | GGCAUACCUCAACACAGCGUGGCAAAUUGGCUGUGGCUUGACUGCC [G5U G7C G27U A39U] | 0.08
51 | GGCAUAGCUCAACACAGUGUGGCAAAGUGGCUGUGGCUAUACUGCC [G5U C18U G40U] | 0.07
52 | GGCAUAUCUCAACACAGCGUGGCAAAGGGGGUGUGGGUAGACUGCC [G5U G7U U28G C31G C37G] | 0.2
53 | GGCAUAGCUGAACACAUCGUGGCAAAGUGGCUGUGGCAAGACUGCC [G5U C10G G17U U38A] | 0
54 | GGCAUAGCUCAACACAGCGUUGCAAAGUGGCUGUGGCUAGACUCCC [G5U G21U G44C] | 0.09
55 | GGCAUAACUUAACACAGCGUGGCAAAGUGGCUGUGGCUAGACUGCC [G5U G7A C10U] | 0.1
56 | GGCAUAGCUCAAAACAGCGUGGCAAAGUGGCUGUGGCUACACUGCC [G5U C13A G40C] | 0.02
